{"source": "patent US20180127502A1", "about": "(Memorial Sloan Kettering, published 2018)", "binders": {"B1": {"name": "anti-PD-1 scFv-Fc clone 27 (scFv linked to murine Fc) (Fc fusion)", "chain": "QSVLTQPPSVSVAPGKTARITCGGNNIGSKSVHWYQQRPGQAPVLVIYYDSDRPSGIPERFSGSNSGNTATLTISRVEAGDEADYYCQVWDSSSDYVFGIGTKVTVLGGGGGSGGGGSGGGGS[sequence of about 100 residues omitted]NYISMFDSWGQGTLVTVSS", "notes": "also called PD-1-27; not shown: murine Fc (mouse IgG1a) domain"}}, "molecular_target": "human PD-1 monomer (human, UniProt Q15116 fragment, limits assumed)", "sequence (Q15116 25-167 limits assumed)": "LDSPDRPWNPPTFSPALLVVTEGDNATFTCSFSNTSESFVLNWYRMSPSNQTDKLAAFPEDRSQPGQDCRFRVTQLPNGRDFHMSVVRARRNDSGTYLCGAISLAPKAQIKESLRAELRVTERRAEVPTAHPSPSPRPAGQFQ", "assay": "ELISA on PD-1 monomer (FIG. 1)", "from_the_text": "ET901 ScFv-Fc (mouse IgG1 Fc) served as the negative control.", "data": [{"binder": "B1", "values": [{"measurement": "binding result", "result": "binds"}]}]}
